PubChem BioAssay (Tox21)
Several values for one entry are separate records, joined by “and”; a condition that tells them apart may be missing. Equal values may be shown once. The shares of active, inactive and inconclusive entries below differ from those in the screen. For some of these results: Where the call is inconclusive, the potency comes from a doubtful curve fit. A structure can be active in one record and inactive in another. Activity calls are given as the source filed them. Unless noted, the call rests on the fitted dose curve; in most records, active means well fitted curve in the direction sought with a large enough effect in the repeat runs; inconclusive means weak or mixed curves; inactive means no such curve, though single readings can be large; an effect the other way counts as inactive or inconclusive.

Key:
[1] = biological target: Thyrotropin receptor (Homo sapiens) (UniProt P16473); test: qHTS assay to identify small molecule antagonists of the thyroid stimulating hormone receptor (TSHR) signaling pathway (AID 1259385; calls by dose curve; further: potency means the concentration at half of the fitted maximal effect; nearly all actives have a fitted effect of over 20% in size); conditions: TSHR-HEK293 cAMP HTRF, TSH-stimulated antagonist mode; activity change, negative = inhibition: at 92.4 µM (top of the series) unless noted
Chain of UniProt P16473 (P16473 whole entry, looked up): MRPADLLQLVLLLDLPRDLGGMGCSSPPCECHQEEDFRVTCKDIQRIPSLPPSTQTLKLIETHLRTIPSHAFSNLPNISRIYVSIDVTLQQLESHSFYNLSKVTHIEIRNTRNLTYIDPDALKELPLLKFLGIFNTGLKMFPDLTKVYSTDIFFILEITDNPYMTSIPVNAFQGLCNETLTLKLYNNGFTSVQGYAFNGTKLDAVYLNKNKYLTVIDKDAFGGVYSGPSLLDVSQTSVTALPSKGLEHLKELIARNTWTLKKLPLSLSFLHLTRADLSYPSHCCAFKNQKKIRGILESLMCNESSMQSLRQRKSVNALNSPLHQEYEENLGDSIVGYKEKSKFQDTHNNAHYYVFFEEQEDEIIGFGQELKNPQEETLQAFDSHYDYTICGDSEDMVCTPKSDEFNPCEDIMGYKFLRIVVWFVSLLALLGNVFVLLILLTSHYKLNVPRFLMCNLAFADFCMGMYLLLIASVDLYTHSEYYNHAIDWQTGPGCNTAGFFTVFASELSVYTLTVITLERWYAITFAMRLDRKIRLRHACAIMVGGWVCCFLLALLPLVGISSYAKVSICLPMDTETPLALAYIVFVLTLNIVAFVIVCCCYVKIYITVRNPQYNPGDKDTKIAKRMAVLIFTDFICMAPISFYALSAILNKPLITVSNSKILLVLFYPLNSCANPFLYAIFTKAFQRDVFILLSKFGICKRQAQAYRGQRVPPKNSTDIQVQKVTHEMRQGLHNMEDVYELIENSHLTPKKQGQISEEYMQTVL
Method in brief: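 TSHR-HEK293 cells were plated and held 18 h at 37C/5% CO2, then given compound plus Ro20-1724 and stimulated with TSH at 1.5 ng/mL final. After 30 min at room temperature, cAMP was detected with cAMP-d2/anti-cAMP-cryptate (1 h) by fluorescence.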

[2] = qHTS assay to identify small molecule agonists of the estrogen receptor alpha (ER-alpha) signaling pathway in the presence of an antagonist - cell viability counter screen (AID 1259386);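 further: potency means the concentration at half of the fitted maximal effect; cells exposed to compounds for 22 h at 37 °C before the viability read; nearly all actives have a fitted effect of over 30% in size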
Method in brief: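 Read-out: CellTiter-Fluor fluorescence after 1hr reagent incubation, measured in the same wells as the luciferase readout. VM7Luc4E2 cells were exposed to 15 compound concentrations with 10.0nM ICI-182,780 for 22hr at 37C.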

[3] = biological target: Progesterone receptor (Homo sapiens) (UniProt P06401); test: qHTS assay to identify small molecule antagonists of the progesterone receptor (PR) signaling pathway (AID 1346795; active means well fitted inhibition curve with a large enough effect in the signal ratio in the repeat runs, not every such curve was filed as active; inconclusive means weak or mixed curves; the % refers to the signal ratio; further: potency means the concentration at half of the fitted maximal effect; on activity change, negative = inhibition: on the % scale 0 is the no-effect control and ±100 the full control effect); conditions: PR-UAS-bla HEK293T, beta-lactamase FRET ratio, 16 h; activity change, negative = inhibition: at 92.4 µM (top of the series) unless noted
Chain of UniProt P06401 (P06401 whole entry, looked up): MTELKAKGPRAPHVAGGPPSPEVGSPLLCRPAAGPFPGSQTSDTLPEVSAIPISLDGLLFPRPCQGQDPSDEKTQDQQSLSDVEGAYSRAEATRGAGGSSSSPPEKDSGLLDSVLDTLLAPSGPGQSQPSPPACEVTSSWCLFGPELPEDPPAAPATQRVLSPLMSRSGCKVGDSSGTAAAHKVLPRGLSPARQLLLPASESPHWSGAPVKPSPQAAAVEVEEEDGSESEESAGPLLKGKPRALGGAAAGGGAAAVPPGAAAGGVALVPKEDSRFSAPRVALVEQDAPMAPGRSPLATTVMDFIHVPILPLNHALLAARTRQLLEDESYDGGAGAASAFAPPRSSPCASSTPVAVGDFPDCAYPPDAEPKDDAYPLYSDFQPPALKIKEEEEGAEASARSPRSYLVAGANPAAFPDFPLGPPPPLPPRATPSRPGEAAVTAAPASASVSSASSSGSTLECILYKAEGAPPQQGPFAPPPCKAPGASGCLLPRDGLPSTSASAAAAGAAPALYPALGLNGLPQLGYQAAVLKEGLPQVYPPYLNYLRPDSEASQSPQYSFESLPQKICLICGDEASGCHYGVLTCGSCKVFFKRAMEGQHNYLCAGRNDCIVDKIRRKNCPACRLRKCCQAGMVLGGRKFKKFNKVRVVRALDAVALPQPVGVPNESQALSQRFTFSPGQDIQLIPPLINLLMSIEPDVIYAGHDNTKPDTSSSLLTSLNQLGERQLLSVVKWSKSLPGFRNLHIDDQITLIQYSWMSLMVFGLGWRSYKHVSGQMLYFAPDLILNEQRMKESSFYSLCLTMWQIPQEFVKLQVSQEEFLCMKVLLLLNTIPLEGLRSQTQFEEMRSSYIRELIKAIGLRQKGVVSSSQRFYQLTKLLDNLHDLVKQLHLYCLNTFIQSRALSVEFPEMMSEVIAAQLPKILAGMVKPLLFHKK
Method in brief: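 PR-UAS-bla HEK293T cells with beta-lactamase reporter under UAS control, in 2% charcoal-stripped FBS, treated with compounds plus 1 nM promegestone (R5020, final) for 16 hr at 37C. Read-out: FRET beta-lactamase substrate fluorescence after 2 hr at room temperature.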

[4] = qHTS assay to identify small molecule antagonists of the progesterone receptor (PR) signaling pathway - cell viability counter screen (AID 1346798); further: potency means the concentration at half of the fitted maximal effect; nearly all actives have a fitted effect of over 50% in size
Method in brief: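 PR-UAS-bla HEK293T cells, 3,000/well in 2% charcoal-stripped FBS medium, dosed with compounds plus R5020 agonist and incubated 16 h at 37C. Viability then measured in the same wells by CellTiter-Glo luminescence after 30 min at RT.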

[5] = qHTS assay to identify small molecule agonists of the progesterone receptor (PR) signaling pathway - cell viability counter screen (AID 1346799; calls by dose curve; further: nearly all actives have a fitted effect of over 45% in size; further: potency means the concentration at half of the fitted maximal effect)
Method in brief: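 Counter screen in the PR-UAS-bla HEK293T wells (2% charcoal-stripped FBS, 16 h compound exposure at 37 C) after the bla read. CellTiter-Glo added, 30 min at room temperature, luminescence read as cell viability.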

[6] = qHTS assay to identify small molecule antagonists of the TGF-beta/Smad signaling pathway - cell viability counter screen (AID 1346824); further: nearly all actives have a fitted effect of over 50% in size; further: potency means the concentration at half of the fitted maximal effect
Method in brief: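 SBE-bla HEK 293T cells were plated overnight at 37 C, then given compounds in DMSO plus TGF-beta1 (added as 0.25 ng/mL solution) for 5 hr. After the bla read, CellTiter-Glo was added to the same wells and luminescence read after 30 min at room temperature.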

[7] = qHTS assay to identify small molecule agonists of the TGF-beta/Smad signaling pathway - cell viability counter screen (AID 1346829); further: potency means the concentration at half of the fitted maximal effect; nearly all actives have a fitted effect of over 45% in size
Method in brief: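 After overnight seating at 37 C and 5% CO2, reporter cells got compounds for 5 hr and FRET substrate for 2 hr; cell viability then came from CellTiter-Glo luminescence.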

[8] = qHTS assay to identify small molecule agonists of the TGF-beta/Smad signaling pathway (AID 1346859; active means well fitted activation curve with a large enough effect in the signal ratio in the repeat runs, not every such curve was filed as active; inconclusive means weak or mixed curves; the % refers to the signal ratio; further: potency means the concentration at half of the fitted maximal effect); conditions: SBE-bla HEK293T, TGF-beta/Smad beta-lactamase reporter, 5 h; activation: at 76.8 µM (top of the series)
Method in brief: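 SBE-bla HEK293T cells plated overnight, then compound exposure for 5 h at 37 C. Beta-lactamase reporter read with LiveBLAzer B/G FRET substrate after 2 h at room temperature, fluorescence at 405 nm excitation, 460/530 nm emission.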

[9] = Caspase-3/7 induction in HepG2 cells by small molecules, qHTS assay (AID 1346978); further: potency means the concentration at half of the fitted maximal effect; nearly all actives have a fitted effect of over 15% in size
Method in brief: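 Wild-type HepG2 cells (2,000/well) were settled 5 h at 37 C, 5% CO2, then exposed to compounds in DMSO for 17 h. Caspase-3/7 activity was read by luminescence 30 min after adding Caspase-Glo 3/7 reagent at room temperature.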

[10] = Caspase-3/7 induction in CHO-K1 cells by small molecules, qHTS assay (AID 1346980); further: potency means the concentration at half of the fitted maximal effect; nearly all actives have a fitted effect of over 15% in size
Method in brief: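 Wild-type cells were seeded at 1,500 per well and settled 5 hr at 37 C, 5% CO2, then exposed to DMSO-dissolved compounds for 17 hr. Caspase-Glo 3/7 reagent was added, and luminescence was read after 30min at room temperature.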

[11] = biological target: Progesterone receptor (Homo sapiens) (UniProt P06401); test: qHTS assay to identify small molecule agonists of the progesterone receptor (PR) signaling pathway (AID 1346784; calls by dose curve; further: potency means the concentration at half of the fitted maximal effect; on activation: on the % scale 0 is the no-effect control and ±100 the full control effect; on all read-outs here: nearly all actives have a fitted effect of over 30% in size); conditions: PR-UAS-bla HEK293T, beta-lactamase FRET ratio, 16 h; for Potency: activation: at 92.4 µM (top of the series) unless noted
Method in brief: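 PR-UAS-bla HEK 293T cells (beta-lactamase reporter under UAS) in 2% charcoal-stripped FBS, dosed with 23 nL compound after 6 hr, incubated 16hr at 37C. LiveBLAzer B/G FRET substrate added, fluorescence read after 2 hours.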

[12] = Caspase-3/7 induction in CHO-K1 cells by small molecules, qHTS cell viability counter screen (AID 1346979); further: potency means the concentration at half of the fitted maximal effect; nearly all actives have a fitted effect of over 35% in size
Method in brief: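 Wild-type CHO-K1 cells (1,500/well) treated with compound after 5 h plating; after 16 h at 37C, viability read as CellTiter-Fluor fluorescence following 1 h reagent incubation, in the same wells as the caspase read.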

[13] = qHTS assay to identify small molecule agonists or antagonists of the thyroid stimulating hormone receptor (TSHR) signaling pathway - wild type cell line counter screen (AID 1259384; calls by dose curve; further: potency means the concentration at half of the fitted maximal effect; on cAMP activity change: on the % scale 0 is the no-effect control and ±100 the full control effect); conditions: HEK293 wild type, cAMP HTRF counter-screen; cAMP activity change: at 92.4 µM (top of the series), stronger effect = higher value unless noted
Method in brief: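 Wild-type HEK293 cells were plated 18 h at 37 C/5% CO2, pin-dosed with compound plus Ro20-1724 medium, held 30 min at room temperature, then given cAMP-d2 and anti-cAMP-cryptate; fluorescence was read after 1 h. Fifteen concentrations, triplicate.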

[14] = qHTS assay to identify small molecule antagonists of the TGF-beta/Smad signaling pathway (AID 1346924; active means well fitted inhibition curve with a large enough effect in the signal ratio in the repeat runs, not every such curve was filed as active; inconclusive means weak or mixed curves; the % refers to the signal ratio); conditions: SBE-bla HEK293T, TGF-beta/Smad reporter, beta-lactamase ratio; activity, negative = inhibition: at 76.8 µM (top of the series) unless noted
Method in brief: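 Read-out was FRET-substrate fluorescence (405 nm excitation; 460 and 530 nm emission) after 2 h at room temperature. Before that, cells carrying a Smad-binding-element beta-lactamase reporter in HEK 293T had been stimulated 5 h at 37 C with TGF-beta1 (0.25 ng/mL addition solution) in the presence of test compound.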

[15] = biological target: Estrogen receptor (Homo sapiens) (UniProt P03372); test: qHTS assay to identify small molecule agonists of the estrogen receptor alpha (ER-alpha) signaling pathway in the presence of an antagonist (AID 1259383; calls by dose curve; further: nearly all actives have a fitted effect of over 15% in size; further: potency means the concentration at half of the fitted maximal effect; on activation: top concentration of the series differs between compounds; on the % scale 0 is the no-effect control and ±100 the full control effect)
Chain of UniProt P03372 (P03372 whole entry, looked up): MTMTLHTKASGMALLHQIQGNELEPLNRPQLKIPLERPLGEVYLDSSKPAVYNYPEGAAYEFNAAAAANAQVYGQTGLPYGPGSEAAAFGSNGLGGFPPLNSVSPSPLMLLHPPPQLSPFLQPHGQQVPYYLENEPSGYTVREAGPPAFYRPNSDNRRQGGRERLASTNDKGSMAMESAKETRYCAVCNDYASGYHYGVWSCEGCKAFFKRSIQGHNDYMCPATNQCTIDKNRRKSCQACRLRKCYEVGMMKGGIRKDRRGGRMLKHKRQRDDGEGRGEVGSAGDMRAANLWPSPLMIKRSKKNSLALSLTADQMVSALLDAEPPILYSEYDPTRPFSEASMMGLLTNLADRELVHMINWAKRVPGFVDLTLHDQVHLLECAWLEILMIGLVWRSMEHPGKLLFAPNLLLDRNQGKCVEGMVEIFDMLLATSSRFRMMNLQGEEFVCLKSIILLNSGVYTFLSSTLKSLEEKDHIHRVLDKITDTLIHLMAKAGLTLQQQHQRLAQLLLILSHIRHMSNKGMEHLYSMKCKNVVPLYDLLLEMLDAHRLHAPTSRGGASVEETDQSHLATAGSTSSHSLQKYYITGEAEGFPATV
Method in brief: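 Luciferase luminescence (ONE-Glo, 30min at room temperature) measured in VM7Luc4E2 cells after 22hr compound exposure at 15 concentrations, with 10.0nM ICI-182,780 final present; cells express endogenous ER-alpha and carry four EREs upstream of luciferase.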

[16] = Human pregnane X receptor (PXR) small molecule agonists, qHTS cell viability counter screen (AID 1346977); further: nearly all actives have a fitted effect of over 50% in size; further: potency means the concentration at half of the fitted maximal effect
Method in brief: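 PXR-Luc HepG2 cells (2,000/well, 5% charcoal-stripped FBS) preincubated 5 hr, then exposed to compounds 24 hr at 37 C. Viability read in the same wells by CellTiter-Fluor fluorescence, reagent added at 23 hr, 1 hr incubation.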
Tags describe the fitted curve by direction and shape or compound fluorescence and quenching.

With `CCN1CCC2(CC1)COc1cc3c(cc12)N(C(=O)c1ccc(-c2ccc(-c4nnc(C)o4)cc2C)cc1)CC3` the Potency [1] was active: 63.3 µM, the Potency [2] was inconclusive: 11.2 µM [cytotoxic, full curve] and the Potency [3] was inconclusive: 56.4 µM [rising, partial curve]. The Potency [4] was active: 25.2 µM, the Potency [5] was active: 8.93 µM and the Potency [6] was inconclusive: 56.9 µM [cytotoxic]. For the same compound, the Potency [7] was inconclusive: 56.9 µM [cytotoxic, single point], the Potency [8] was inconclusive: 50.7 µM and the Potency [9] was inconclusive: 63.3 µM [activator, single point]. For the same compound, the Potency [10] was inconclusive: 63.3 µM [activator, partial curve, poor fit].
With `O=c1[nH]c2ccccc2n1C1CCN(CCCC(c2ccc(F)cc2)c2ccc(F)cc2)CC1` the Potency [1] was inconclusive: 18.8 µM [falling, partial curve, poor fit], the Potency [2] was inconclusive: 21.1 µM [cytotoxic, partial curve] and the activation ([11]; at 42.5 µM (top of the series)) was inconclusive: -13.7%. The activation ([11]; at 92.4 µM (top of the series)) was inconclusive: -11.1%, the Potency [4] was active: 30.6 µM and inconclusive: 33.5 µM [cytotoxic, single point] and the Potency [5] was inconclusive: 24.3 µM [cytotoxic, full curve, poor fit] and inconclusive: 37.6 µM [cytotoxic, single point]. For the same compound, the Potency [7] was active: 49 µM, the Potency [8] was inconclusive: 7.76 µM [rising, partial curve] and the Potency [12] was active: 30.6 µM and active: 26.6 µM. For the same compound, the Potency [10] was inconclusive: 33.5 µM [activator, single point].
With `O=[N+]([O-])c1ccc(F)c([N+](=O)[O-])c1` the cAMP activity change [13] was inconclusive: 1.49%, the Potency [2] was active: 30.9 µM and the Potency [4] was inconclusive: 38.9 µM [rising, partial curve]. The Potency [5] was inconclusive: 38.9 µM [rising, partial curve], the Potency [6] was inconclusive: 39.3 µM [cytotoxic, partial curve] and the Potency [8] was inconclusive: 49.4 µM [rising, single point]. For the same compound, the activity, negative = inhibition [14] was inconclusive: -34.3%.
For `Oc1ccc(C2(c3ccc(O)cc3)CCCCC2)cc1`, the Potency [1] was inconclusive: 65 µM [falling, single point], the Potency [2] was inconclusive: 65 µM [cytotoxic] and the Potency [11] was inconclusive: 57.9 µM [cytotoxic]. For the same compound, the Potency [3] was inconclusive: 72.9 µM [falling, single point], the Potency [5] was inconclusive: 65 µM [cytotoxic, single point] and the activity, negative = inhibition [14] was inconclusive: -21.4%.
With `CCCCC(CC)COC(=O)Cl` (stereo not given) the Potency [15] was inconclusive: 48.7 µM [activator, partial curve], the Potency [5] was “inactive” and the Potency [16] was “inactive”.
In the case of `Oc1cc(Cl)cc(Cl)c1`, the Potency [15] is reported as “inactive”, the Potency [11] is reported as inconclusive: 69.3 µM and the Potency [3] is reported as inconclusive: 24.6 µM [falling, full curve]. For the same compound, the Potency [4] was inconclusive: 77.7 µM [rising, single point], the Potency [5] was inconclusive: 77.7 µM [rising, single point] and the Potency [6] was “inactive”. The Potency [12] was inconclusive: 77.7 µM [cytotoxic, single point].
With `CCC[CH2][Sn]([Cl])([CH2]CCC)[CH2]CCC` the Potency [13] was inconclusive: 7.7 µM [rising, full curve], the Potency [1] was active: 12.2 µM and the Potency [11] was inconclusive: 1.94 µM and inconclusive: 3.86 µM [cytotoxic, full curve, poor fit]. For the same compound, the Potency [5] was active: 1.73 µM and active: 2.17 µM, the Potency [6] was active: 1.38 µM and active: 2.19 µM and the Potency [7] was active: 1.55 µM and active: 977 nM. For the same compound, the Potency [16] was active: 562 nM and active: 433 nM, the Potency [9] was active: 1.73 µM and active: 2.73 µM and the Potency [12] was active: 194 nM and active: 344 nM. For the same compound, the Potency [10] was active: 274 nM and active: 545 nM.
In the case of `c1ccc(C2CC2)c(OCC2=NCCN2)c1`, the Potency [13] is reported as inconclusive: 9.81 µM and the Potency [3] is reported as “inactive”.
